Source: the supplement of paper PMC8728848
The other results are listed elsewhere or left out.

Legend:
Test in all cases: glycan array binding signal (z-score within array); higher = stronger binding
Conditions in all cases: glycan notation: IUPAC condensed, linker removed
[1] = molecular target: Fuc(a1-2)Gal
In short: (§1)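 Glycan array data were curated from 3228 arrays in the Consortium for Functional Glycomics database and kept only where the protein sequence was available. Glycan names were converted to IUPAC-condensed notation, and columns mapping to the same glycan were averaged. The binding signal is a within-array Z-score, averaged across arrays of the same protein sequence at different concentrations or buffers and across linkers. Negative Z-scores can be read as non-binding.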

[2] = molecular target: Fuc(a1-2)Gal(b1-3)GalNAc
In short: as §1

[3] = molecular target: Fuc(a1-2)Gal(b1-3)GalNAc(a1-3)[Fuc(a1-2)]Gal(b1-4)Glc
In short: as §1

[4] = molecular target: Fuc(a1-2)Gal(b1-3)GalNAc(a1-3)[Fuc(a1-2)]Gal(b1-4)GlcNAc
In short: as §1

[5] = molecular target: Fuc(a1-2)Gal(b1-3)GalNAc(b1-3)Gal
In short: as §1

[6] = molecular target: Fuc(a1-2)Gal(b1-3)GalNAc(b1-3)Gal(a1-4)Gal(b1-4)Glc
In short: as §1

[7] = molecular target: Fuc(a1-2)Gal(b1-3)GalNAc(b1-4)[Neu5Ac(a2-3)]Gal(b1-4)Glc
In short: as §1

[8] = molecular target: Fuc(a1-2)Gal(b1-3)GlcNAc
In short: as §1

[9] = molecular target: Fuc(a1-2)Gal(b1-3)GlcNAc(b1-2)Man(a1-3)[Fuc(a1-2)Gal(b1-3)GlcNAc(b1-2)Man(a1-6)]Man(b1-4)GlcNAc(b1-4)GlcNAc
In short: as §1

[10] = molecular target: Fuc(a1-2)Gal(b1-3)GlcNAc(b1-2)Man(a1-3)[Fuc(a1-2)Gal(b1-3)GlcNAc(b1-2)Man(a1-6)]Man(b1-4)GlcNAc(b1-4)[Fuc(a1-6)]GlcNAc
In short: as §1

[11] = molecular target: Fuc(a1-2)Gal(b1-3)GlcNAc(b1-3)Gal(b1-4)Glc
In short: as §1

[12] = molecular target: Fuc(a1-2)Gal(b1-3)GlcNAc(b1-3)GalNAc
In short: as §1

[13] = molecular target: Fuc(a1-2)Gal(b1-3)GlcNAc(b1-3)[Fuc(a1-2)Gal(b1-3)GlcNAc(b1-6)]GalNAc
In short: as §1

[14] = molecular target: Fuc(a1-2)Gal(b1-3)GlcNAc(b1-3)[Gal(b1-4)GlcNAc(b1-6)]Gal(b1-4)Glc
In short: as §1

[15] = molecular target: Fuc(a1-2)Gal(b1-3)GlcNAc(b1-3)[Neu5Ac(a2-6)Gal(b1-4)GlcNAc(b1-6)]Gal(b1-4)Glc
In short: as §1

[16] = molecular target: Fuc(a1-2)Gal(b1-3)GlcNAc6S
In short: as §1

[17] = molecular target: Fuc(a1-2)Gal(b1-3)[Fuc(a1-4)]GlcNAc
In short: as §1

[18] = molecular target: Fuc(a1-2)Gal(b1-3)[Fuc(a1-4)]GlcNAc(b1-2)Man(a1-3)[Fuc(a1-2)Gal(b1-3)[Fuc(a1-4)]GlcNAc(b1-2)Man(a1-3)]Man(b1-4)GlcNAc(b1-4)GlcNAc
In short: as §1

[19] = molecular target: Fuc(a1-2)Gal(b1-3)[Fuc(a1-4)]GlcNAc(b1-2)Man(a1-3)[Fuc(a1-2)Gal(b1-3)[Fuc(a1-4)]GlcNAc(b1-2)Man(a1-6)]Man(b1-4)GlcNAc(b1-4)[Fuc(a1-6)]GlcNAc(b1-4)[Fuc(a1-6)]GlcNAc
In short: as §1

[20] = molecular target: Fuc(a1-2)Gal(b1-3)[Fuc(a1-4)]GlcNAc(b1-3)[Fuc(a1-3)[Gal(b1-4)]GlcNAc(b1-6)]Gal(b1-4)Glc
In short: as §1

[21] = molecular target: Fuc(a1-2)Gal(b1-3)[Fuc(a1-4)]GlcNAc(b1-3)[Gal(b1-4)GlcNAc(b1-6)]Gal(b1-4)Glc
In short: as §1

[22] = molecular target: Fuc(a1-2)Gal(b1-4)Glc
In short: as §1

[23] = molecular target: Fuc(a1-2)Gal(b1-4)Glc6S
In short: as §1

[24] = molecular target: Fuc(a1-2)Gal(b1-4)GlcNAc
In short: as §1

[25] = molecular target: Fuc(a1-2)Gal(b1-4)GlcNAc(b1-2)Man
In short: as §1

[26] = molecular target: Fuc(a1-2)Gal(b1-4)GlcNAc(b1-2)Man(a1-3)[Fuc(a1-2)Gal(b1-4)GlcNAc(b1-2)Man(a1-6)]Man(b1-4)GlcNAc(b1-4)GlcNAc
In short: as §1

[27] = molecular target: Fuc(a1-2)Gal(b1-4)GlcNAc(b1-2)Man(a1-3)[Fuc(a1-2)Gal(b1-4)GlcNAc(b1-2)Man(a1-6)]Man(b1-4)GlcNAc(b1-4)[Fuc(a1-6)]GlcNAc
In short: as §1

[28] = molecular target: Fuc(a1-2)Gal(b1-4)GlcNAc(b1-2)[Fuc(a1-2)Gal(b1-4)GlcNAc(b1-4)]Man(a1-3)[Fuc(a1-2)Gal(b1-4)GlcNAc(b1-2)Man(a1-6)]Man(b1-4)GlcNAc(b1-4)GlcNAc
In short: as §1

[29] = molecular target: Fuc(a1-2)Gal(b1-4)GlcNAc(b1-3)Gal(b1-4)GlcNAc
In short: as §1

[30] = molecular target: Fuc(a1-2)Gal(b1-4)GlcNAc(b1-3)Gal(b1-4)GlcNAc(b1-2)Man(a1-3)[Fuc(a1-2)Gal(b1-4)GlcNAc(b1-3)Gal(b1-4)GlcNAc(b1-2)Man(a1-6)]Man(b1-4)GlcNAc(b1-4)GlcNAc
In short: as §1

[31] = molecular target: Fuc(a1-2)Gal(b1-4)GlcNAc(b1-3)Gal(b1-4)GlcNAc(b1-3)Gal(b1-4)GlcNAc
In short: as §1

[32] = molecular target: Fuc(a1-2)Gal(b1-4)GlcNAc(b1-3)GalNAc
In short: as §1

[33] = molecular target: Fuc(a1-2)Gal(b1-4)GlcNAc(b1-3)[Fuc(a1-2)Gal(b1-4)GlcNAc(b1-6)]GalNAc
In short: as §1

[34] = molecular target: Fuc(a1-2)Gal(b1-4)GlcNAc(b1-3)[Fuc(a1-3)[Gal(b1-4)]GlcNAc(b1-6)]Gal(b1-4)Glc
In short: as §1

[35] = molecular target: Fuc(a1-2)Gal(b1-4)GlcNAc(b1-6)GalNAc
In short: as §1

[36] = molecular target: Fuc(a1-2)Gal(b1-4)GlcNAc6S
In short: as §1

[37] = molecular target: Fuc(a1-2)Gal(b1-4)[Fuc(a1-3)]GlcNAc
In short: as §1

B1: PX14343A-bvu-539-29-539 (Bacteroides vulgatus) (protein)
chain: DSLTESSSNTFWQTPDDALMALASCYDALQSNQLYNSDQYSLGPLYMDCISDNGGHFNWSGWMEGYDMAMGIHTPSSSIIGSYWKDCYEVISRCNVLIANIDRVDMDASQKAIYQAEAKTIRALMYINLTMTYQDVPFLTAPLTIDEAECEKTDRAAIVAHVMTDLQDAAEVLPQNASSRGHITKGAALSLLGRVALYNEKWDDAIAAYKQVQGLGYSLDPSYAKLFTQSGETSPEIIFAVRYEGPGMSEGAAFNAHWNTPLEAMNGTIDLADAYYCKDGKPTTDTKIAELNGGGGLDVSKPNPAHFENRDPRLYSTLFVPGMLWNGKGGIDTSASNPYANVYGGAAASLSTVYVYKYFDPTDTSNSWDNGQDFYVVRYAEVLLSLAEAMVQKGGYVYSDVTALVNEVRQRADVNMPTVEEVEGTSLSKDELLEVIKHERRVELAFEGLRLFDLYRWKELDKAVANIENERTMYGLAYEARKFNGERDYVWPLPTAELDTNKKLVQHDLWK
Question: What does the source list for B1?
Answer: glycan array binding signal (z-score) [1]: -0.27; glycan array binding signal (z-score) [2]: -0.467; glycan array binding signal (z-score) [3]: -0.355; glycan array binding signal (z-score) [4]: -0.346; glycan array binding signal (z-score) [5]: -0.015; glycan array binding signal (z-score) [6]: -0.346; glycan array binding signal (z-score) [7]: -0.271; glycan array binding signal (z-score) [8]: -0.028; glycan array binding signal (z-score) [9]: -0.158; glycan array binding signal (z-score) [10]: 1.93; glycan array binding signal (z-score) [11]: -0.207; glycan array binding signal (z-score) [12]: -0.39; glycan array binding signal (z-score) [13]: -0.03; glycan array binding signal (z-score) [14]: -0.115; glycan array binding signal (z-score) [15]: -0.213; glycan array binding signal (z-score) [16]: -0.374; glycan array binding signal (z-score) [17]: -0.495; glycan array binding signal (z-score) [18]: -0.09; glycan array binding signal (z-score) [19]: -0.092; glycan array binding signal (z-score) [20]: -0.261; glycan array binding signal (z-score) [21]: -0.071; glycan array binding signal (z-score) [22]: -0.057; glycan array binding signal (z-score) [23]: -0.328; glycan array binding signal (z-score) [24]: -0.293; glycan array binding signal (z-score) [25]: -0.324; glycan array binding signal (z-score) [26]: 0.292; glycan array binding signal (z-score) [27]: -0.146; glycan array binding signal (z-score) [28]: -0.05; glycan array binding signal (z-score) [29]: -0.248; glycan array binding signal (z-score) [30]: 8.08; glycan array binding signal (z-score) [31]: -0.245; glycan array binding signal (z-score) [32]: -0.218; glycan array binding signal (z-score) [33]: -0.346; glycan array binding signal (z-score) [34]: -0.423; glycan array binding signal (z-score) [35]: 0.015; glycan array binding signal (z-score) [36]: -0.179; glycan array binding signal (z-score) [37]: -0.151
